Source: doi:10.1101/2020.04.11.036434 (bioRxiv, 2020)

Target: P-Rex2 (WT), recombinant full-length (UniProt Q70Z35 1-1606)
Assay: SPR

Kd: 100 nM
B1: Gβγ (Gβ1 and His-Gγ2 (C68S)) (complex)
chain 1: not shown
chain 2: not shown
